Among all 320,000 compounds or so, about 7,600 (2.4%) were called active. This list was built around the results that the source calls inconclusive (neither active nor inactive); the mix of calls is not that of the screen. Calls come from the whole dose curve; as a rule, active = well fitted activation curve with a large enough effect; inconclusive = small, poorly fitted or top-dose-only effect; inactive = no such curve, though single readings can be large or run the other way. No potency is given beside an inconclusive call; the fits are too rough.
assay: qHTS Assay for NPC1 Promoter Activators; conditions: Huh7 NPC1 promoter luciferase reporter, 24 h; series mostly up to 9.22 µM; note: nearly all actives have a fitted effect of over 60% in size;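 for activation: reporter is driven by a mutant NPC1 promoter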
Procedure, shortened: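 In 1536-well qHTS, Huh7 cells harboring an NPC1 promoter–luciferase construct received compound for 24 h; activation was quantified by luminescence following luciferase reagent addition.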
Potency is the fitted concentration of half-maximal effect; tags give direction and shape of the fitted curve.

Compound	Potency
CCOc1ccc(N2Nc3n[nH]c(N)c3N2)cc1	inconclusive [activator, single point]
CCOC(=O)c1ccc(S(=O)(=O)N2CCC(C(=O)NCc3ccccc3OC)CC2)cc1	inactive
COc1ccc(-c2cc(C(=O)NC(C(=O)O)C(C)C)c(C)o2)cc1OC (stereo not drawn)	inconclusive [activator, partial curve]
CCc1nonc1NC(=O)c1oc2ccc(C)cc2c1C	inconclusive [activator, partial curve]
O=C(Cc1ccc(O)cc1)NC1CCCCCC1	inconclusive [activator, partial curve]
Cc1cc(NC(=O)c2ccccc2)ncc1NC(=O)c1ccco1	active: 2 µM
CC(=O)NN1C(=O)/C(=C2/Sc3ccccc3N2C)SC1=S	inactive
COc1ccc(-c2cc(=NC(CC(C)C)C(=O)O)c3cc(C)ccc3o2)cc1 (stereo not drawn)	inconclusive [activator, single point]
Cc1cc(NC(=S)Nc2ccc(C)c(Cl)c2)n[nH]1	inconclusive [activator, single point]
Oc1csc(Cc2nc(-c3ccc4ccccc4c3)cs2)n1	inconclusive [activator, single point]
CN(C(=O)c1ccco1)c1nc(-c2ccc(Cl)cc2)cs1	inconclusive [activator, partial curve]
CC1Cc2cc(/C=C3/SC(=S)NC3=O)ccc2O1 (stereo not drawn)	inconclusive [activator, partial curve]
CCOc1nc(C)ccc1-c1noc(-c2cccnc2)n1	inactive
c1ccc(-c2nc(-c3ccc(-c4ccon4)s3)no2)cc1	active: 1.12 µM
Cc1cccnc1NC(=O)NC(=O)c1ccc(C(C)(C)C)s1	inconclusive [activator, partial curve]
CCCC(=O)Nc1cc(-c2nc3ncccc3o2)ccc1C	inactive
O=C(NCC1COc2ccccc2O1)c1ccco1 (stereo not drawn)	inactive
CCCC1(c2ccccc2)NC(=O)N(CC(=O)Nc2cc(S(=O)(=O)N3CCOCC3)ccc2Cl)C1=O (stereo not drawn)	inactive
CCc1ccc(C(=O)COC(=O)c2n[nH]c3ccccc23)cc1	active: 1.78 µM
O=C(c1ccc2oc(CCc3ccccc3)nc2c1)N1CCC(O)CC1	active: 1.26 µM
c1ccc(Cn2cc(CSc3ccccc3)nn2)cc1	inconclusive [activator, partial curve]
c1ccn2cc(CSc3nnc4ccccn34)nc2c1	active: 3.55 µM
COc1ccc(-c2cc3ccccc3oc2=O)cc1NC(=O)c1ccc(Br)o1	inconclusive [activator, partial curve]
Cc1ccc(CNC(=O)Nc2cccs2)cc1	inconclusive [activator, partial curve]
C/C(=N\NC(=O)c1ccccc1)c1ccccc1Br	inconclusive [activator, single point]
Cc1cc(NC(=O)c2ccc([N+](=O)[O-])cc2Cl)no1	inconclusive [activator, partial curve]
Cc1cc(N=NC(=O)c2ccccc2O)c2ccccc2c1O	inconclusive [activator, single point]

Compound	Potency
COc1ccccc1-c1ccc(NC2CCCCC2)nn1	inconclusive [activator, partial curve]
O=C(/C=C\Nc1ccc2c(c1)OCO2)c1cccs1	active: 1.41 µM
COc1ccccc1N1CCN(CC(=O)Nc2ccccc2C(=O)NC(C)c2ccccc2)CC1 (stereo not drawn)	inactive
CCCCn1c(N)c(N(CC(C)C)C(=O)CSCc2cccc(C)c2)c(=O)[nH]c1=O	inactive
O=C(Nc1ccc(O)cc1)c1cc2ccccc2c(=O)s1	active: 3.98 µM
Nc1ccc2c(c1Cl)C(=O)c1ccc(N)c(Cl)c1C2=O	inconclusive [activator, single point]
Cc1cc(C(=O)Cn2nc(C(=O)O)c3ccccc3c2=O)c(C)n1CCc1ccc(F)cc1	inactive
COCC1CCN(C(=O)CCc2nnc(C3(c4ccc(Cl)cc4)CCC3)o2)C1 (stereo not drawn)	inconclusive [activator, single point]
O=C(Nc1ccccc1Br)c1ccc(N2CCCC2=O)cc1	inconclusive [activator, partial curve]
CC1CCN(c2ccc(-c3cccc(NC(=O)C(F)(F)F)c3)nn2)CC1	inconclusive [activator, full curve, poor fit]
c1ccc(NCc2nc(-c3ccccc3)no2)cc1	inconclusive [activator, single point]
O=C(Nc1ccc(Cl)cc1)Nc1cccc(C(=O)O)c1	active: 0.0891 µM
COc1cccc(OCC(=O)NNC(=O)C(=O)Nc2cccc(C)c2)c1	inconclusive [activator, single point]
N#Cc1cccc(S(=O)(=O)NCc2nnc3ccccn23)c1	inactive
O=[N+]([O-])c1cc2c(c(CSc3nnc(Nc4ccccc4)s3)c1)OCOC2	inactive
CC1(C)CC(=O)c2sc(NC(=O)c3ccccc3)nc2C1	active: 0.447 µM
Cc1csc(N/N=C/c2ccccc2F)n1	inactive
COC(=O)CSc1nc2cc(C)ccc2cc1C#N	active: 1.58 µM
N/C(=N\N=C\c1cccc(O)c1)c1nonc1N	inconclusive [activator, single point]
COc1ccc(C(=O)Nc2ccc3c(c2)OCCO3)cc1	active: 0.447 µM
Cc1ccc(NC(=S)NC(=O)C2CCCC2)cc1C	active: 3.16 µM
COC(=O)c1cccc(NC(N)=S)c1	inactive
O=C(/C=C/c1ccc(Cl)c([N+](=O)[O-])c1)Nc1cccc(NC(=O)c2ccco2)c1	inactive
O=C(Nc1ccon1)c1ccc(OC2CCCC2)cc1	active: 2.51 µM
COc1ccc(Cn2c(=S)[nH]c3cc(C(=O)N4CCCCC4)ccc3c2=O)cc1	inactive
c1csc(-c2nc3ccccc3[nH]2)c1	inconclusive [activator, partial curve]
